Experimental data: PubChem BioAssay (NCI)
Where “and” joins values, the source holds several entries; their conditions need not be identical. Equal entries are not always repeated.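 Method: 48-hour compound exposure of cells in 96-well plates, five concentrations, linear interpolation of endpoints. Abbreviation: GI50, concentration required for 50% inhibition of growth. TGI: total growth inhibition.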

system: NCI-H322M lung; assay: NCI-60 cell line screen, 48 h

Compound | GI50 | TGI
CC(C)[C@@H]1CC[C@]2(CO2)[C@@H]2C(=O)OCC(C(=O)O)=C[C@H]21 | 0.63 µM | 23 µM
COc1ccc2nc3cc(Cl)ccc3c(NC(C)CCCN(CCCl)CCCl)c2c1 (stereo not given) | – | 5.8 µM
CC(=O)O[C@H]1CC2C(C3CC[C@H](C(C)CCC(=O)O)[C@]31C)[C@H](OC(C)=O)C[C@@H]1CC3(CC[C@]21C)OOC1(CCC(C)CC1)OO3 (stereo not given in full) | 22.1 µM and 3.66 µM | 36.7 µM and 16.9 µM
NC1=NC(Cn2nc(-c3ccccc3)c3ccccc3c2=O)=NNC(=O)N1 | – | > 100 µM
Cc1cc(Cl)nc(N(CCNc2ccnc3cc(Cl)ccc23)Cc2ccco2)n1 | 2 µM | 4.75 µM
COC(=O)c1cc2c(cc1Cl)Sc1nnc(Nc3ccccc3)n1S2(=O)=O | – | 19.3 µM
CCCCCCCCOCC(COC(=O)CCCCCCC)OC(=O)CCCCCCC (stereo not given) | – | > 100 µM
O=C1N[C@@H]2CCCC[C@@H]2C12CCCCC2 | – | > 100 µM
O=C1c2ccccc2C(=O)c2c(NC3CCCCC3)ccc(Nc3ccc(S(=O)(=O)O)cc3)c21 | – | > 100 µM
C#Cc1ccc(-n2c(/C=C/c3ccc(O)cc3)nc3ncccc3c2=O)cc1 | 5.58 µM | > 100 µM
COc1cc([C@@H]2c3cc4c(cc3[C@@H](Nc3ccc(NC(=O)c5cc([N+](=O)[O-])cn5C)cc3)[C@H]3COC(=O)[C@H]23)OCO4)cc(OC)c1O | 2.04 µM and 0.751 µM | > 76.1 µM
C[C@@H](CC(=O)OCc1ccccc1)OC1OC(COC(=O)C(C)(C)C)C(OC(=O)C(C)(C)C)C(OC(=O)C(C)(C)C)C1OC(=O)C(C)(C)C (stereo not given in full) | – | > 100 µM
COC(=O)[C@@H]1CO[C@H](C(C)(C)C)N1C(=O)N1C=CC(=O)C[C@H]1C | – | > 100 µM
CCOC(=O)/C(=C/c1ccccn1)C(=O)c1ccccc1 | – | 31 µM
N#CC(C#N)=C/C=C(\Sc1ccc(Cl)cc1)c1ccc(F)cc1 | 4.69 µM | 15.6 µM
Clc1ccc(C=Nc2ccc(Oc3ccc(Cl)cc3)c(Cl)c2)cc1 | – | 61.5 µM
O=NN(CCCl)C(=O)NC1CCC(CC(=O)O)CC1 (stereo not given) | – | > 100 µM
COc1ccc(-c2cc(/C=C/C(=O)c3ccc(N)cc3)[nH]n2)cc1OC | 4.34 µM | 16.5 µM
N#CC1CC(c2ccccc2)Nc2cc(Cl)ccc2N1 (stereo not given) | – | > 100 µM
CCOC(=O)C1S(=O)(=O)OCCOS1(=O)=O | – | > 100 µM
COC(=O)c1cc(S(=O)(=O)NC2=NCC(C)NN2)c(S)cc1Cl (stereo not given) | – | > 100 µM
COc1cc(-c2nccc3[nH]c(-c4ccc5cc[nH]c5c4)nc23)cc(OC)c1OC | < 0.01 µM | 11.7 µM
C=C(CN1CCc2[nH]c3ccc(F)cc3c2C1)c1ccc(C(=O)Nc2ccccc2N)cc1 | 5.26 µM | 20 µM
CC1=NN(c2nc(N)nc(C(C)Cl)n2)C(C)(C)C1 (stereo not given) | – | > 100 µM

Compound | GI50 | TGI
COc1ccc(-c2[nH]c3ccc(OC)cc3c2C=C(C#N)C#N)cc1 | > 100 µM | > 100 µM
CC1NOC(=O)C1N=Nc1ccc(Cl)cc1Cl (stereo not given) | – | 66.4 µM
Cc1cccc2sc(NC(=O)NS(=O)(=O)n3cnc4ccccc43)nc12 | – | > 100 µM
Cc1c(C)c(S(=O)(=O)N(CCCCN)OCCCN)c(C)c2c1OC(C)(C)CC2 | – | 30.9 µM
CCN(CC)c1ccc2nc3ccc(=[N+](CC)CC)cc-3oc2c1 | 0.124 µM | 3.47 µM
CNCc1ccc(-c2cc(-c3nc(-c4ccc(S(=O)(=O)C(C)C)cc4)cnc3N)on2)cc1 | 0.482 µM | 15.1 µM
O=C1CC(c2ccc(Cl)cc2)=Nc2ccccc2N1 | – | > 100 µM
Cc1ccc(NC(=O)c2cc(S(=O)(=O)Nc3nnc(-c4ccccc4)c(-c4ccccc4)n3)c(SCc3ccccc3)cc2Cl)cc1 | 17.7 µM | 42.5 µM
CC(C)(C)OC(=O)N(CCCCNC(=O)C(F)(F)F)CCCNC(=O)C(F)(F)F | – | > 100 µM
C(=Nc1nc(SCc2ccccc2)nc2[nH]ncc12)c1cccs1 | 64.2 µM | > 100 µM
O=C(c1ccc(Cl)cc1)C1OC12C(=O)Nc1c(Cl)cc(Cl)cc12 (stereo not given) | – | > 100 µM
Cc1cc(C)c(-c2no/c(=N\S(=O)(=O)c3ccc(Cl)cc3)o2)c(C)c1 | – | > 100 µM
Cc1nc2c(sc3nc4c(cc32)CCC4)c(=O)o1 | – | > 100 µM
CCCC(=O)CC(C)C(=O)C(=O)NC12CC3CC(CC(C3)C1)C2 (stereo not given) | – | > 100 µM
CN1CCN(c2c(F)cc(NC3=C(Cl)C(=O)c4ncccc4C3=O)cc2F)CC1 | 16.2 µM | 30.4 µM
COC1(OC)c2occc2C(=N)c2ccc(=O)oc21 | – | > 100 µM
COc1cc2nc(Cl)nc(NS(=O)(=O)c3cc4ccccc4s3)c2cc1OC | – | 54.1 µM
COCCOC1=C(Cl)C(=O)c2ccccc2C1=O | 15.1 µM | 29.8 µM
CCc1ccc(Nc2cc(C)c3ccc(O)cc3n2)cc1 | 13.6 µM | 27.5 µM
COC(=O)C1CCC(=O)N1CN(C(C)=O)c1cccc(O)c1 (stereo not given) | – | > 100 µM
CCCCCCCCCCCCCCNC(=O)Nc1ccc(Cl)c(Cl)c1 | 26.9 µM | > 100 µM
Cc1ccc(S(=O)(=O)N(CC(O)COc2ccccc2)c2c(F)cccc2F)cc1 (stereo not given) | – | 94.4 µM
COc1ccc(/C(Nc2ccccc2)=C(\CCl)c2ccccc2)cc1OC | – | > 100 µM
